From PubChem BioAssay AID463173 (ICCB-Longwood Screening Facility, Harvard Medical School, 2010)
In all, about 52,000 compounds went through this assay and about 1,700 (3.3%) were called active. Cut-off read from the data, not from the text of the source: active = survival mostly below about 52% (no sharp cut-off); inactive = mostly above about 56%. The list shows a part of the results.

Each compound was assayed on Wild type (assay: growth inhibition of S. aureus wild type versus tarO mutant, primary screen, teichoic acid synthesis inhibitors, RN4220, OD600 (AID 463173)). Settings: S. aureus RN4220 wild type/DeltatarO growth, OD600, 18 h, active compounds read low, screened at 18.75 µg/mL (by protocol).
For `O=C(CSc1nc2c([nH]c3ccccc32)c(=O)n1-c1ccccc1)Nc1ccc(Cl)c(Cl)c1`, the survival was inactive: 90%.
For `COc1cc(NC(=O)N2CCC3(CC2)Nc2ccccc2-n2cccc23)cc(OC)c1OC`, the survival was inactive: 95%.
In the case of `COc1ccc(-c2cc(OC(=O)c3cccc(Cl)c3)c3c(C)oc(C)c3c(=O)c2)cc1`, the survival is reported as inactive: 131%.
With `CCOc1ccc(NC(=O)Cn2nnc(C(=O)NCCc3ccccc3)c2N)cc1` the survival was inactive: 93%.
For `Cc1ccc2nc(-c3cccnc3)c(Nc3ccc(C(C)C)cc3)n2c1`, the survival was inactive: 75%.
For `O=C(COc1ccc2ccccc2c1)NC1CC(=O)N(c2ccccc2)C1` (stereo not given), the survival was inactive: 85%.
In the case of `CCOC(=O)c1cnc2c(-c3ccccc3)c(C(F)(F)F)nn2c1C`, the survival is reported as inactive: 98%.
With `CCOC(=O)c1noc2ncn(CC(=O)Nc3cccc(Cl)c3)c(=O)c12` the survival was inactive: 73%.
`O=C(CSc1c2c(nc3cc(Cl)ccc13)CCCC2)N1CCN(c2ccccc2F)CC1` was tested, and the survival was inactive: 69%.
`CN(C)c1ccc(C2NCCS2)cc1` (stereo not given) was tested, and the survival was inactive: 99%.
For `COc1ccccc1NC(=O)CSc1oc(-c2ccccc2)nc1S(=O)(=O)c1ccc(C)cc1`, the survival was inactive: 145%.
With `Cc1cn2c(=O)c(S(=O)(=O)N3CCN(c4cc(Cl)ccc4C)CC3)c(C)nc2s1` the survival was inactive: 90%.
With `O=C(c1ccc(F)cc1)n1nc(-c2cccnc2)nc1NCc1ccc(F)cc1` the survival was inactive: 79%.
For `Cc1nc(-c2ccc(S(=O)(=O)N3CCN(c4cc(Cl)ccc4C)CC3)cc2)co1`, the survival was inactive: 72%.
With `O=C(NCCc1ccc(Cl)cc1)C1COc2ccccc2C1` (stereo not given) the survival was inactive: 88%.
`CCNC(=O)c1sc2ccccc2c1Cl` was tested, and the survival was inactive: 124%.
`CN(C)CCCNc1cn[nH]c(=O)c1Cl` was tested, and the survival was inactive: 105%.
With `Brc1ccc2ncnc(NCCCN3CCOCC3)c2c1` the survival was inactive: 114%.
`O=C(Nc1cccc(-c2nc3cccnc3s2)c1)c1cccc(Br)c1` was tested, and the survival was inactive: 33%.
In the case of `CCOC(=O)c1ccc(NC(=O)c2cn(-c3ccccc3)nc2-c2ccc(OC)c(OC)c2)cc1`, the survival is reported as inactive: 140%.
For `COc1ccccc1NC(=O)C1=C(C)Nc2sc(C#N)c(N)c2C1c1ccco1` (stereo not given), the survival was inactive: 107%.
In the case of `O=C(Cn1c(=O)oc2cc(S(=O)(=O)N3CCCC3)ccc21)Nc1ccc(F)cc1F`, the survival is reported as inactive: 88%.
For `CCNC(=O)CC1C(=O)N(c2ccc(C)cc2)C(=O)N1CCC(C)C` (stereo not given), the survival was inactive: 84%.
`COc1ccc2c(Sc3ccc(Cl)cc3)c(C(=O)N3CCC(C)CC3)[nH]c2c1` was tested, and the survival was inactive: 38%.
For `Cc1ccc(S(=O)(=O)c2nc(-c3cccs3)oc2SC(C)C)cc1`, the survival was inactive: 64%.
With `N#Cc1ccccc1NC(=O)C(=O)NCCc1csc(-c2ccc(F)cc2)n1` the survival was inactive: 72%.
In the case of `O=C(c1cccc(Cl)c1)n1nc(-c2cccnc2)nc1NCc1ccccc1`, the survival is reported as inactive: 82%.
In the case of `CCCCOc1cccc(NC(=O)c2cccc(C(=O)Nc3cccc(OCCCC)c3)c2)c1`, the survival is reported as inactive: 73%.
`CCOC(=O)c1c(C)oc2nc(C)nc(NCc3cccc(Cl)c3)c12` was tested, and the survival was inactive: 82%.
In the case of `CCOC(=O)c1nc(Nc2ccc(C(=O)OC)cc2)c2ccccc2n1`, the survival is reported as inactive: 93%.
With `CCc1ccccc1NC(=O)c1ccc(=O)n(Cc2ccc(F)cc2)c1` the survival was inactive: 60%.
With `CCc1ccc(-n2c(=O)c3cccnc3n2CC(=O)Nc2cc(OC)ccc2OC)cc1` the survival was inactive: 74%.
In the case of `CC1CCN(C(=O)c2cccc(Cl)c2)CC1`, the survival is reported as inactive: 112%.
For `CSCCC(NS(=O)(=O)c1ccc2c(c1)oc(=O)n2C)C(=O)N1CCN(c2ccc(C(C)=O)cc2)CC1` (stereo not given), the survival was inactive: 91%.
With `COc1cccc(C(=O)NCC(=O)OCc2cc(=O)n3ccsc3n2)c1` the survival was inactive: 126%.
For `COc1cc(OC)cc(C(=O)Nc2nnc3n2CCS3)c1`, the survival was inactive: 72%.
For `Cc1ccc(C(=O)Nc2nc(-c3nnn(-c4cccc(C(F)(F)F)c4)c3C)ns2)cc1`, the survival was inactive: 75%.
In the case of `CCc1nnc(NC(=O)c2sc3nc4ccc(OC)cc4cc3c2N)s1`, the survival is reported as inactive: 109%.
In the case of `Cc1ccc(CCNC(=O)c2cn(C)c3ccc(S(=O)(=O)N4CCC(C)CC4)cc3c2=O)cc1`, the survival is reported as inactive: 82%.
In the case of `Cc1cc(C)c(NC(=O)CCCn2c(C)c3cnn(-c4ccccc4)c(=O)c3c2C)c(C)c1`, the survival is reported as inactive: 123%.
In the case of `CC(C)CC(=O)Nc1nnc(SCc2cc(=O)n3ccccc3n2)s1`, the survival is reported as inactive: 82%.
`CCN(CC)S(=O)(=O)c1ccc2[nH]cc(C(=O)NCCc3ccccc3)c(=O)c2c1` was tested, and the survival was inactive: 84%.
For `O=c1c(S(=O)(=O)c2cccc(Cl)c2)cn(Cc2ccccc2)c2cc(N3CCCCC3)c(F)cc12`, the survival was inactive: 67%.
`COc1ccccc1NC(=O)CN1C(=O)CSc2ccc(S(=O)(=O)N3CCCC3)cc21` was tested, and the survival was inactive: 98%.
For `CCOC(=O)c1c(S(=O)(=O)NCC(=O)Nc2ccc(F)cc2C)c(C)n(C)c1C`, the survival was inactive: 84%.
In the case of `COc1cc(OC)cc(-c2nc3nc(C)c(CCC(=O)NCCC(C)C)c(C)n3n2)c1`, the survival is reported as inactive: 77%.
In the case of `O=C(Nc1ccccc1C(F)(F)F)c1ccncc1`, the survival is reported as inactive: 83%.
With `COc1cc(OC)c(NC(=O)c2c(C)oc3nc(C)nc(N4CCOCC4)c23)cc1Cl` the survival was inactive: 81%.
In the case of `CCOC(=O)C1=C(O)CSC1=NC(=O)c1ccc(OC)cc1`, the survival is reported as inactive: 121%.
In the case of `CCn1ccc2cc(S(=O)(=O)N3CCC(C(=O)NCCc4ccccc4)CC3)ccc21`, the survival is reported as inactive: 66%.
With `CC(=O)C1=C(c2ccc(Br)cc2)N(C(C)=O)n2c(nnc2C2CCCCC2)S1` the survival was inactive: 72%.
`Cc1cccc(CNC(=O)c2ccc(C)c(-n3c(C)nc4cccnc43)c2)c1` was tested, and the survival was inactive: 73%.
In the case of `CCOc1ccc(-n2c(=O)c3c(C)c(C)sc3n(CC(=O)N3CCC(C)CC3)c2=O)cc1`, the survival is reported as inactive: 88%.
For `O=C(NCc1ccccc1Cl)c1ccc(Cn2c(=O)c3cccn3c3cccnc32)cc1`, the survival was inactive: 111%.
`COc1cccc(-n2cc(C(=O)OCc3ccc(Cl)cc3)c3ccccc3c2=O)c1` was tested, and the survival was inactive: 94%.
In the case of `COCCCNC(=O)c1cnn(-c2ccc(F)cc2F)c1C1CCNCC1`, the survival is reported as inactive: 118%.
In the case of `CC(/C=C/c1ccccc1)=N\Nc1nc2c(c(=O)[nH]c(=O)n2C)n1CC(O)COC(C)C` (stereo not given), the survival is reported as inactive: 108%.
With `Cc1ccc2scc(N3CCCCC3)c(=O)c2c1` the survival was inactive: 85%.
With `COc1ccc(NC(=O)CC2C(=O)N(c3ccc(F)cc3)C(=O)N2CCc2sccc2C)cc1` (stereo not given) the survival was inactive: 75%.
For `CCOC(=O)c1cc(-c2ccccc2)n(CCC(=O)Nc2cc(C)cc(C)c2)c1C`, the survival was inactive: 80%.
For `Nc1ccc2nc(-c3ccc(O)cc3)sc2c1`, the survival was inactive: 146%.
For `O=C(NC1CCCCC1)N1CCN(Cc2ccccc2)CC1`, the survival was inactive: 108%.
For `Cc1ccc(N2CCN(C(=O)C3CCN(c4ncnc5c4nc4n5CCCCC4)CC3)CC2)c(C)c1`, the survival was inactive: 55%.
In the case of `Cc1ccc2nc(NC(=O)c3nc(SCc4ccccc4C)ncc3Cl)sc2c1`, the survival is reported as inactive: 113%.
For `CN(Cc1ccccc1)C(=O)C1CCC(CNS(=O)(=O)c2ccc3c(c2)CCCC(=O)N3)CC1` (stereo not given), the survival was inactive: 131%.
For `Cc1ccc(S(=O)(=O)N2CCC(NC(=O)c3ccccc3)CC2)cc1`, the survival was inactive: 101%.
`Cc1ccc2ncc(C(=O)NC(C)c3ccccc3)c(=O)n2c1` (stereo not given) was tested, and the survival was inactive: 91%.
`Cc1cc(C)c(NC(=O)CS(=O)CC(=O)N2CCN(c3ccccc3)CC2)c(C)c1` (stereo not given) was tested, and the survival was inactive: 102%.
In the case of `O=C(O)CCc1nnc2cnc3ccccc3n12`, the survival is reported as inactive: 136%.
With `CCc1nn(CC(=O)NCCCc2ccccc2)c(=O)c2cc3c(OC)cccc3n12` the survival was inactive: 93%.
With `COc1cc(NC(=O)NCC2CCN(Cc3ccc(C)cc3)CC2)cc(OC)c1OC` the survival was inactive: 131%.
With `Cc1ccc(N2C(=O)CS(=O)(=O)C23C(=O)N(C)c2ccccc23)cc1F` (stereo not given) the survival was inactive: 75%.
`Cc1ccc(C)c(Nc2cc(C(=O)NCCCN(C)C3CCCCC3)c3ccccc3n2)c1` was tested, and the survival was inactive: 99%.
With `Cc1ccc(N2CCN(C(=O)c3c(C)oc4ncnc(N5CCOCC5)c34)CC2)c(C)c1` the survival was inactive: 83%.
For `Cc1ccc(CNC(=O)c2cnc3c(-c4ccccc4)c(C)nn3c2C)o1`, the survival was inactive: 76%.
In the case of `O=[N+]([O-])c1cc(-c2nc(-c3ccccn3)no2)ccc1NCc1ccccc1`, the survival is reported as inactive: 73%.
`Cc1ccc(C(=O)Nc2nnc(S(=O)(=O)N3CCN(c4ccc(F)cc4)CC3)s2)cc1` was tested, and the survival was inactive: 86%.
With `Cc1ccc(CN2CCCn3nc(C(=O)NCc4cc(C)ccc4C)cc3C2=O)cc1` the survival was inactive: 82%.
With `Cc1cc(N2CCCC(O)C2)n2nc(C)c(-c3ccc(F)cc3)c2n1` (stereo not given) the survival was inactive: 120%.
`CCc1cccc(NC(=O)CSc2ncc3c(n2)-c2ccccc2N(CC)S3(=O)=O)c1` was tested, and the survival was inactive: 95%.
With `COc1ccc(NC(=O)C(C)n2nc(-c3cc(C)ccc3C)c3c(c2=O)CCCC3)cc1` (stereo not given) the survival was inactive: 70%.
`COCCNC(=O)CSc1nc2cc3c(cc2c(=O)n1Cc1ccc(C(=O)NCCc2ccc(OC)c(OC)c2)cc1)OCO3` was tested, and the survival was inactive: 79%.
With `CCOc1ccc(NC(=O)CSc2nnc(-c3ccncc3)n2-c2ccccc2)cc1` the survival was inactive: 127%.
In the case of `COCCCNC(=O)CCC(=O)NNc1nc2ccccc2c2nc(-c3ccccc3)nn12`, the survival is reported as inactive: 88%.
`O=C(NCCc1ccccc1)C(=O)NCC(c1ccco1)S(=O)(=O)c1ccccc1` (stereo not given) was tested, and the survival was inactive: 90%.
With `COc1ccc(CNC(=O)c2ccc(CSc3nc4ccncc4n3Cc3ccccc3F)cc2)cc1` the survival was inactive: 83%.
For `CCOc1ccc(Nc2ncnc3c2cnn3-c2ccc(F)cc2)cc1`, the survival was inactive: 60%.
In the case of `CCOC(=O)C(=O)Nc1nnc2n1CCS2`, the survival is reported as inactive: 71%.
In the case of `Cc1nc(N2CCCC2)ncc1C(=O)N1CCN(c2ccc(Cl)cc2)CC1`, the survival is reported as inactive: 99%.
With `Cc1ccc(C)c(-n2cc(-c3ccccc3)nc2SCC(=O)Nc2ccccc2)c1` the survival was inactive: 72%.
